PubChem BioAssay AID651820 (National Center for Advancing Translational Sciences (NCATS), 2012)
About 12,000 (3.5%) of roughly 340,000 compounds were called active. Inconclusive means that the source gave no clear call. Such entries were picked first, then a sample of the others. Calls follow the shape of the dose curve; as a rule, active = well fitted inhibition curve with a large enough effect; inconclusive = small, poorly fitted or top-dose-only effect, or another doubt; inactive = no such curve, though single readings can be large or run the other way. No potency is given beside an inconclusive call; the fits are too rough.

Experiment: qHTS Assay for Inhibitors of Hepatitis C Virus (HCV)
Settings: Huh7.5.1 HCVcc-Cre (HCVcc is cell-culture hepatitis C virus) infection, luciferase reporter, 44 h; activity change, negative = inhibition: at 41.8 µM (top of the series) unless noted
Summary of the method: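 Reporter virus HCVcc-Cre (~0.5 moi) infects cells exposed to compound; seeding density 1,000 cells/well with 4 h settling beforehand. Luminescence, 15 sec read, taken 44 h post-infection following a 15 min RT substrate incubation.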
% is scaled to controls: 0 for no effect and ±100 for the full control effect; potency is read from the fitted curve at half-maximal effect; tags tell the direction and shape of the fitted curve.

SMILES | Potency | activity change, negative = inhibition
O=c1nc2sc3ccccc3n2c(=O)n1-c1cccc(Cl)c1 | active: 11.2 µM | –
NNC(=O)c1[nH]c2ccc([N+](=O)[O-])cc2c1-c1ccccc1 | inconclusive [inhibitor, full curve] | –
NC(=O)c1ccccc1OCC(=O)Nc1ccc2c(c1)OCCO2 | – | inactive: -22%
CCOC(=O)N1CCN(C(=O)CSCC(=O)Nc2nc(-c3cccs3)cs2)CC1 | active: 12.6 µM | –
CC1CCN(C(=S)Nc2ccc(SC(F)F)cc2)CC1 | inconclusive [inhibitor, single point] | –
COc1ccccc1NS(=O)(=O)c1cccc(NC(=O)NC2CCCCC2)c1 | inconclusive [inhibitor, single point] | –
COc1cc(N2C(=O)C=CC2=O)c(OC)cc1Cl | inconclusive [inhibitor, single point] | –
N#Cc1nc(COc2ccccc2F)oc1N1CCCCCC1 | inconclusive [inhibitor, single point] | –
CN(C)C(CNC(=O)c1ccc([N+](=O)[O-])cc1Cl)c1ccco1 (stereo not drawn) | inconclusive [inhibitor, single point] | –
CCCn1c(-c2cc(OC)c(OC)c(OC)c2)nc2c1c(=O)[nH]c(=O)n2Cc1ccccc1 | inconclusive [inhibitor, full curve, poor fit] | –
COc1cc(/C=C/c2noc(-c3ccccc3O)n2)ccc1OC(C)=O | inconclusive [inhibitor, partial curve] | –
O=C1N[C@H](Cc2ccccc2)COC(=O)[C@H](Cc2ccc(F)cc2)CC/C=C/C[C@@H]1CC(=O)N(CCO)Cc1ccccc1 | inconclusive [inhibitor, single point] | –
COc1ccc(NC(=O)COc2cccc3c2OC(C)(C)C3)c(OC)c1 | inconclusive [inhibitor, single point] | –
COc1ccccc1N1CCN(C(=O)c2c(-c3ccccc3Cl)noc2C)CC1 | active: 11.2 µM | –
C=CCn1c(SCC(=O)NCc2ccco2)nnc1-c1ccc2ccccc2n1 | inconclusive [inhibitor, single point] | –
CCn1ccnc1CN1CCCC(C(=O)c2ccc3cc(OC)ccc3c2)C1 (stereo not drawn) | active: 10 µM | –
O=C(NC(=S)NCCc1ccccc1)c1cccc(Cl)c1 | – | inactive: 16.9%
O=C(NCCO)c1cccc(Nc2nc(-c3ccccc3)c3cc(Cl)ccc3n2)c1 | inconclusive [inhibitor, single point] | –
CC1(C)C(=O)Nc2ccccc2N1C(=O)COC(=O)c1ccc([N+](=O)[O-])o1 | – | inactive: -9.9%
COC(=O)C1=C(c2cccc(OCc3ccccc3)c2)C[C@@H]2CC[C@H]1N2C(=O)NCc1ccccc1OC | inconclusive [inhibitor, single point] | –
C=CCN1CC[C@]23c4c5ccc(O)c4OC2C(=O)CC[C@@]3(O)C1C5 (stereo partly drawn) | active: 2.51 µM | –
Cc1csc(SCC(=O)Nc2cccc(C)c2C)n1 | – | inactive: -1.05%

SMILES | Potency | activity change, negative = inhibition
CN(Cc1nccn1C)C(=O)c1cc(COc2cccc(C(F)(F)F)c2)on1 | inconclusive [inhibitor, single point] | –
COc1ccc(S(=O)(=O)N(C)CC(=O)Nc2ccc3c(c2)OCO3)cc1 | inconclusive [inhibitor, single point] | –
COc1ccc(OCC(=O)Nc2cc(-c3nn(C)c(=O)c4ccccc34)ccc2N2CCOCC2)cc1 | – | inconclusive: -53% [inhibitor]
COc1ccc(NC(=O)c2cc(Br)ccc2Cl)c(OC)c1 | inconclusive [inhibitor, full curve, poor fit] | –
CC(C)(C)OC(=O)C[C@H]1C/C=C\C[C@H](CC(=O)NCCO)C(=O)N[C@@H](c2ccccc2)COC1=O | – | inactive: 1.31%
COC(=O)C1=C(c2ccc(F)cc2OCc2ccccc2)C[C@@H]2CC[C@H]1N2C(=O)NCc1ccc(F)cc1 | inconclusive [inhibitor, single point] | –
Cc1ccc(S(=O)(=O)N2CCN(C(=O)C3CCN(c4ncnc5sc(C)c(C)c45)CC3)CC2)c(C)c1 | active: 4.47 µM | –
COc1ccc(C(=O)Nc2cc(C)c(NC(=O)c3ccccc3OC)cn2)cc1 | inconclusive [inhibitor, partial curve] | –
COc1ccccc1C(=O)NCCSCc1ccccc1Cl | inconclusive [inhibitor, single point] | –
CC(C)(C)c1ccc(-c2cc(N)n[nH]2)cc1 | inconclusive [inhibitor, single point] | –
COC(=O)COc1cccc(-n2cnnn2)c1 | – | inactive: 9.07%
CCCCCCn1c(CN2CCN(C)CC2)nc2c1c(=O)n(C)c(=O)n2C | inconclusive [inhibitor, single point] | –
Cc1c(C(=O)NCC2CCCO2)oc2c(Cl)cccc12 (stereo not drawn) | inconclusive [inhibitor, partial curve] | –
Cc1[nH]c2ccc(-c3nnc(SCC(=O)NCc4ccco4)n3Cc3ccccc3)cc2c1C | inconclusive [inhibitor, single point] | –
O=[N+]([O-])c1ccc(N/N=C2\CC3CC=CC23)cc1 (stereo not drawn) | active: 22.4 µM | –
Cc1cccc(N2CCN(C(=O)c3c(-c4ccccc4)noc3C)CC2)c1C | inconclusive [inhibitor, single point] | –
COc1ccc(NC(=O)COc2ccccc2C)cc1S(=O)(=O)N1CCCCC1 | active: 8.91 µM | –
COc1ccc(-c2csc(NC(=O)CN3C(=O)C4CCCCC4C3=O)n2)cc1OC (stereo not drawn) | inconclusive [inhibitor, single point] | –
Cc1ccc(C(O)(c2ccc(C)c(C)c2)C2CN3CCC2CC3)cc1C (stereo not drawn) | inconclusive [inhibitor, partial curve] | –
Cc1cc(C)nc(SCCn2c(N3CCCCC3)nc3c2c(=O)n(C)c(=O)n3C)n1 | inconclusive [inhibitor, full curve, poor fit] | –
CC1(c2ccccc2)CC(C)(C)N(C(=O)C2CCCO2)c2ccccc21 (stereo not drawn) | inconclusive [inhibitor, partial curve] | –
